Experimental data: the RNAGym collection of RNA variant scans (doi:10.7554/elife.90254)
The source gives no read counts; variants with many changes may rest on few reads.

B1: LINE1-mini (parent)
chain: GGCAGAGCUCAACACAGCGUGGCAAAGUGGCUGUGGCUAGACUGCC

Variants of: B1
Assay: self-cleavage, relative activity (ratio to wild type); higher = more cleavage; in vitro, sequencing; the parent is a self-cleaving ribozyme

| Variant | self-cleavage |
| --- | --- |
| G1U G22U G27A | 0.23 |
| G1U G19U C42U C45A | 0.07 |
| G1U G5C C10A C37A | 0.03 |
| G1U C10U G33U | 0.01 |
| G1U G22U U38C G40A G44C | 0.02 |
| G2A C10U G17U G21A A39C | 0.04 |
| G2A C8G C10A C31A G35C | 0.02 |
| G2A A16G G29C G30A G36U A39G | 0.1 |
| G1U G27U C46U | 0.69 |
| G2A A12C U32C | 0.02 |
| G2A A6G U9A A14G U43A | 0.11 |
| G1U G2A A4G | 0.68 |
| G1U U38G C45G | 0.03 |
| G2A A4C G29U C37G | 0.16 |
| G2A A41U C42A | 0.1 |
| G2A A4U G19U U38A C42U | 0.03 |
| G1U G22U A26C U34A | 0.03 |
| G2A C3U G5C G19C G30A | 0.77 |
| G1U U20C C31A | 0.04 |
| G1U G21U A25C G29A | 1.25 |
| G1U C13A C31G | 0.01 |
| G1U C15A C18A G22C U32G | 0.02 |
| G1U U32G C37U | 0.02 |
| G2A A25G A26G G30C A39C | 0.08 |

| Variant | self-cleavage |
| --- | --- |
| G1U G7A G35A | 0.11 |
| G2A C10A A12C G27C G33U G35U | 0.02 |
| G2A C3A A16U A25G G33U C46A | 0.37 |
| G2A C3U A25C G30C C31G | 0.25 |
| G1U U32G G35U | 0.01 |
| G1U G5A A6G | 0.06 |
| G2A C3A C8A U9G U20C G36C | 1.58 |
| G2A C3G C13A C31G U32A | 0.32 |
| G2A C8A G19A A25G G40A | 0.16 |
| G1U C13U C18A | 0.01 |
| G2A A4U G21A G22U C45A | 0.82 |
| G2A C3U G22U C31G | 0.21 |
| G2A A24C A25C G33A | 0.1 |
| G1U G5A U38A | 0.05 |
| G1U G2U A24C G33A G44U C46U | 0.03 |
| G1U G2C G19U G35A U38G | 0 |
| G1U U9G C31G U32A | 0.02 |
| G2A C10A U28G | 0.07 |
| G2A A12U A41C | 0.15 |
| G2A A12G C13A G27C G29U G36A | 0.12 |
| G1U G2C A4U G17C U28A A41U | 0.01 |
| G1U C10U U34G | 0.05 |
| G2A C3U A16U G19A | 0.24 |
| G2A C10G G19A G27U | 0.04 |

| Variant | self-cleavage |
| --- | --- |
| G2A A4C G21A G29A C42U | 0.14 |
| G2A A6G A12G A25C C45A | 0.01 |
| G2A C13A G30A C31G U32C | 0.07 |
| G1U G29A U32A | 0.01 |
| G2A C13A A16C | 0.24 |
| G1U G19C A24C U38C | 0.06 |
| G2A A11C G21C G22A G44U | 0.1 |
| G1U G17C C23A C42G | 0 |
| G1U C18G G30A G35A G44U C45A | 0.09 |
| G1U U9G G36U C37U | 0.01 |
| G1U C23U G40C | 0.03 |
| G1U U9A A12G C15A U32C C42A C46U | 0.02 |
| G2A A25C C31U | 0.04 |
| G1U G19A U28C | 0.29 |
| G2A C13U C18G G36A | 0.1 |
| G1U G2C C8G A12G A14C U28C U32C | 0.01 |
| G2A A11U C13A G19U G35C | 0.04 |
| G1U C13U A25U G30A U32C | 0.06 |
| G1U C23U C31A C37G | 0.02 |
| G2A A6G U38A A39U | 0.2 |
| G2A A6U G21U A25C | 0.44 |
| G1U G2C C3A G7A G30A G35C | 0.71 |
| G1U G21U A41U C45U | 0.6 |
| G2A A4U G27A | 2.39 |

| Variant | self-cleavage |
| --- | --- |
| G2A A6U C31A C46A | 0.13 |
| G1U G5C A6G C10A A14G A26C G29U | 0 |
| G2A C10G A14U G27U G29C G33C | 0.03 |
| G1U G2C A25G G36U C37G C46A | 0 |
| G2A C3A G5A G36U A41C | 0.88 |
| G2A C10G G36U | 0.02 |
| G1U U28G C31U | 0.21 |
| G2A A12G C46A | 0.06 |
| G2A A14G U20C G22A G44C | 0.12 |
| G2A A16U G22A G27C C42A C45U | 0.03 |
| G1U G2U A4C A24G A26C | 0.06 |
| G2A C13U G19A C46U | 0.78 |
| G2A C15G G17U U38A | 0.01 |
| G2A C8A A25U | 0.47 |
| G1U G21U C23U C42A | 0.19 |
| G2A A6C C10A C23A A25C G30A | 0.01 |
| G2A A4U A14U | 0.07 |
| G1U G27C U32C | 0.04 |
| G2A C8G A14C C37A | 0.01 |
| G2A A6C G27U | 0.97 |
| G2A A14G G30U | 0.13 |
| G2A A4C A6G C42U | 0.02 |
| G1U U34G C42U | 0.01 |
| G1U G5A G17U | 0.09 |

| Variant | self-cleavage |
| --- | --- |
| G2A C13U C42G | 0.08 |
| G2A A25G A41C | 0.04 |
| G2A A12U U20A A26C U38A | 0.11 |
| G2A A16U C45U C46A | 0.2 |
| G2A C8U C13A | 0.6 |
| G2A A25G G33C | 0.08 |
| G2A A12G C15G G29C C37A | 0.1 |
| G1U G7U A26C | 0.03 |
| G2A A6U A11G C18G | 0.01 |
| G1U C18G U28A | 0.27 |
| G2A C10A C23A G36U | 0.02 |
| G2A A16G G17U G29U G40A | 0.13 |
| G2A A12U G35C C37G | 0.11 |
| G1U G7U C10U G22C G33C | 0.02 |
| G1U G7U A16C | 0.08 |
| G2A C3U U9C A11G G22U A25G | 0.04 |
| G2A A6U G30A C42A | 0.17 |
| G1U U9C A14U G21U G33A | 0.04 |
| G2A C3G A6C G21A | 0.36 |
| G1U C15A A26G G29U | 0.08 |
| G1U G5U C18U | 0.02 |
| G1U U9A C18G G21A | 0.03 |
| G1U G2U U9C U20C | 0.02 |
| G2A C3A G7U C15A G35C | 0.5 |

| Variant | self-cleavage |
| --- | --- |
| G1U C23U C31G U43A | 0.03 |
| G2A C8A G27A | 0.08 |
| G1U C10U G35U | 0.02 |
| G1U G2C C13A | 0.05 |
| G1U C37A A39C | 0.26 |
| G2A A39C U43A | 0.42 |
| G2A A4G A41C C46U | 0.64 |
| G2A C15A G22C G35C | 0.03 |
| G1U C18A G44U | 0.04 |
| G2A C10A U38A G44A | 0.14 |
| G2A C13U C18A G40C C42G | 0.04 |
| G1U G5U A25G A26G G27C U32C G35C G40U | 0.04 |
| G2A A16U C31U C45A | 0.08 |
| G1U C18A G21U G22C A24C | 0.04 |
| G2A C3A U20G C31A A41U | 0.45 |
| G2A A12G C15A A16U A25C | 0.16 |
| G1U G5C C15G G44A | 0.02 |
| G2A A6G A14U U28C G40C | 0.04 |
| G2A C3A C18U U32A | 1.16 |
| G1U C13A G21A A25G | 0.06 |
| G2A A4U U9G A16C G33U | 0.24 |
| G2A A24G A41G | 0.37 |
| G1U G7A A16C G35C | 0.03 |
| G1U G27C C31U A41C C42A | 0 |

| Variant | self-cleavage |
| --- | --- |
| G1U G5U A14C U20A G35A | 0.02 |
| G1U G5C C8G G21C A25U | 0.52 |
| G1U G5A U32A | 0.01 |
| G1U G33A G36C G44C | 0.03 |
| G1U G5U G35U | 0.05 |
| G1U U20C G44U | 0.08 |
| G1U C10U G17A A24U | 0.05 |
| G1U C18A G33U | 0.02 |
| G1U G5C G17A G33C | 0.06 |
| G2A A24G G27A | 0.84 |
| G1U C18G C31U | 0.01 |
| G1U G19A C31U | 0.11 |
| G2A C10U G17C C45G | 0.94 |
| G2A A4U G21U A26C G40U | 0.03 |
| G1U G21U G22A | 1.8 |
| G2A C3U U32A | 0.21 |
| G2A A11C C15A A39U | 0.08 |
| G2A A11G U38C | 0.02 |
| G2A C13A G19A G21C U43C | 0.07 |
| G2A C13G A16U G35U U38C C42G | 0.16 |
| G1U G2C G27C G33C | 0.02 |
| G1U U43C G44U | 0.04 |
| G2A A11U G30A C31U | 0.02 |
